From US20230338565A1, “ANTIBODY DRUG CONJUGATE, PREPARATION METHOD THEREFOR AND USE THEREOF” (SICHUAN KELUN-BIOTECH BIOPHARMACEUTICAL CO., LTD., priority 2020, published 2023)
“And” between values parts separate entries of the source, which are not always exact repeats. Identical values can stand only once.

Experiments:
[1] = system: NCI-N87-Claudin18.2 gastric cancer transplanted tumor; assay: 12.1 NCI-N87-Claudin18.2 + Balb/c Nude mice CDX model; assay type: in vivo; conditions: 2C6.9-TL001 DAR 7.12, 2C6.9-TL002 DAR 6.95
[2] = system: NCI-N87-Claudin18.2 subcutaneous transplantation tumor; assay: 12.5 NCI-N87-Claudin18.2 in Balb/c Nude mouse CDX model; assay type: in vivo, Balb/c Nude mice; conditions: DAR 7.40
[3] = system: HuPrime gastric cancer GA0006 (high expression Claudin18.2 stomach tumor); assay: 12.4 HuPrime gastric cancer GA0006 + Balb/c Nude mice PDX model; assay type: in vivo; conditions: DAR 7.12
[4] = system: NUGC-4 gastric cancer transplantation tumor; assay: 12.7 NUGC-4 in Balb/c Nude mouse CDX model; assay type: in vivo, Balb/c Nude mice; conditions: DAR 7.40
[5] = system: HEK293T-Claudin18.2 human embryonic kidney cell transplantation tumor; assay: 12.6 HEK293T-Claudin18.2 in Balb/c Nude mouse CDX model; assay type: in vivo, Balb/c Nude mice; conditions: DAR 7.40
[6] = system: NCI-N87-Claudin18.2 subcutaneous transplanted tumor; assay: 12.2 2C6.9-TL001 versus 2C6.9 mAb + chemotherapy in CDX model; assay type: in vivo, Balb/c Nude mice; conditions: DAR 7.12
[7] = system: NUGC-4 subcutaneous transplantation tumor; assay: 12.3 2C6.9-TL001 with different DAR values in CDX (NUGC-4) model; assay type: in vivo, Balb/c Nude mice; conditions: Day 21
[8] = 1 mg/kg tail vein twice a week x6, Day 21, 7 mice/group
[9] = 1 mg/kg tail vein twice a week x6, Day 21
[10] = 3 mg/kg tail vein twice a week x6, Day 21, 7 mice/group
[11] = 3 mg/kg tail vein twice a week x6, Day 21
[12] = 0.3 mg/kg tail vein twice a week x6, Day 31, 8 mice/group
[13] = 0.3 mg/kg tail vein twice a week x6, Day 31
[14] = 1 mg/kg tail vein twice a week x6, Day 31
[15] = 3 mg/kg tail vein twice a week x6, Day 31, 8 mice/group
[16] = 3 mg/kg tail vein twice a week x6, Day 31
[17] = 3 mg/kg tail vein twice a week x5, Day 17, 7 mice/group
[18] = 3 mg/kg tail vein twice a week x5, Day 17
[19] = 3 mg/kg tail vein twice a week x5, Day 24, 7 mice/group
[20] = 3 mg/kg tail vein twice a week x5, Day 24
[21] = 10 mg/kg tail vein twice a week x5, Day 17, 7 mice/group
[22] = 10 mg/kg tail vein twice a week x5, Day 17
[23] = 10 mg/kg tail vein twice a week x5, Day 24, 7 mice/group
[24] = 10 mg/kg tail vein twice a week x5, Day 24
[25] = 3 mg/kg tail vein twice a week x6, Day 21, 8 mice/group
[26] = 10 mg/kg tail vein twice a week x6, Day 21, 8 mice/group
[27] = 10 mg/kg tail vein twice a week x6, Day 21
[28] = 0.3 mg/kg tail vein twice a week x6, Day 21, 8 mice/group
[29] = 0.3 mg/kg tail vein twice a week x6, Day 21
[30] = 1 mg/kg tail vein twice a week x6, Day 21, 8 mice/group
[31] = 3 mg/kg tail vein twice a week for 3 weeks, Day 21, 7 mice/group
[32] = 3 mg/kg tail vein twice a week for 3 weeks, Day 21
[33] = 3 mg/kg tail vein twice a week, Day 11, 7 mice/group
[34] = 3 mg/kg tail vein twice a week, Day 11
[35] = 5.25 mg/kg tail vein twice a week for 3 weeks
[36] = 17.5 mg/kg tail vein twice a week for 3 weeks

B1: 2C6.9-TL001: ADC prepared by conjugating TL001 with humanized anti-Claudin 18.2 monoclonal antibody 2C6.9-hz21 (conjugate)
heavy: QVQLQESGPGLVKPSETLSLTCTVSGFSLTRYGVSWIRQPPGKGLEWIGVIWGEGNTNYNPSLKSRVTISKDSSKSQVSLKLSSVTAADTAVYYCARVNFGNALDYWGQGTLVTVSS[human IgG1 constant region not spelt out]
light: DIVMTQSPDSLAVSLGERATINCKSSQSLLNSGNQKNYLTWYQQKPGQPPKLLIYWASTRDSGVPDRFSGSGSGTDFTLTISSLQAEDVAVYYCQNDFIFPLTFGGGTKVEIKRTVAAPSVFIFPPSDEQLKSGTASVVCLLNNFYPREAKVQWKVDNALQSGNSQESVTEQDSKDSTYSLSSTLTLSKADYEKHKVYACEVTHQGLSSPVTKSFNRGEC
[1]; [8]
  Tumor regression CR (mice with complete regression): 0
  Tumor regression PR (mice with partial regression): 4
[1]; [9]
  T/C (%): 29.96%
  TGI (%): 96.03%
  Tumor volume (mm^3) (x ± SEM): 143.91 ± 28.23 mm^3
[1]; [10]
  Tumor regression CR (mice with complete regression): 4
  Tumor regression PR (mice with partial regression): 3
[1]; [11]
  T/C (%): 2.70%
  TGI (%): 133.50%
  Tumor volume (mm^3) (x ± SEM): 12.96 ± 4.62 mm^3
[2]; [12]
  Tumor regression CR (mice with complete regression): 0/0
  Tumor regression PR (mice with partial regression): 0/0
[2]; [13]
  T/C (%): 74.04%
  TGI (%): 34.04%
  Tumor volume (mm^3) (x ± SEM): 437.74 ± 16.68 mm^3
[2]; 1 mg/kg tail vein twice a week x6, Day 31, 8 mice/group
  Tumor regression CR (mice with complete regression): 0
[2]; [14]
  T/C (%): 18.13%
  TGI (%): 122.57%
  Tumor volume (mm^3) (x ± SEM): 107.06 ± 9.63 mm^3
[2]; [15]
  Tumor regression CR (mice with complete regression): 4 and 4/4
  Tumor regression PR (mice with partial regression): 4 and 4/4
[2]; [16]
  T/C (%): 3.69%
  TGI (%): 184.22%
  Tumor volume (mm^3) (x ± SEM): 21.83 ± 2.26 mm^3
[3]; [17]
  Tumor regression CR (mice with complete regression): 0
  Tumor regression PR (mice with partial regression): 4
[3]; [18]
  T/C (%): 23.96%
  TGI (%): 94.72%
  Tumor volume (mm^3) (x ± SEM): 187.00 ± 46.07 mm^3
[3]; [19]
  Tumor regression CR (mice with complete regression): 0
  Tumor regression PR (mice with partial regression): 6
[3]; [20]
  T/C (%): 8.78%
  TGI (%): 103.76%
  Tumor volume (mm^3) (x ± SEM): 111.83 ± 42.26 mm^3
[3]; [21]
  Tumor regression CR (mice with complete regression): 7
  Tumor regression PR (mice with partial regression): 0
[3]; [22]
  T/C (%): 0.00%
  Tumor volume (mm^3) (x ± SEM): 0.00 ± 0.00 mm^3
[3]; [23]
  Tumor regression CR (mice with complete regression): 7
  Tumor regression PR (mice with partial regression): 0
[3]; [24]
  T/C (%): 0.00%
  TGI (%): 113.70%
  Tumor volume (mm^3) (x ± SEM): 0.00 ± 0.00 mm^3
[4]; [25]
  Tumor regression CR (mice with complete regression): 0/0
  Tumor regression PR (mice with partial regression): 0/0
[4]; [11]
  T/C (%): 48.95%
  TGI (%): 56.62%
  Tumor volume (mm^3) (x ± SEM): 385.67 ± 35.09 mm^3
[4]; [26]
  Tumor regression CR (mice with complete regression): 0
  Tumor regression PR (mice with partial regression): 2
[4]; [27]
  T/C (%): 19.09%
  TGI (%): 90.28%
  Tumor volume (mm^3) (x ± SEM): 148.23 ± 25.52 mm^3
[5]; [28]
  Tumor regression CR (mice with complete regression): 1
  Tumor regression PR (mice with partial regression): 0
[5]; [29]
  T/C (%): 32.83%
  TGI (%): 70.99%
  Tumor volume (mm^3) (x ± SEM): 507.95 ± 99.30 mm^3
[5]; [30]
  Tumor regression CR (mice with complete regression): 0
  Tumor regression PR (mice with partial regression): 2
[5]; [9]
  T/C (%): 10.13%
  TGI (%): 94.98%
  Tumor volume (mm^3) (x ± SEM): 156.48 ± 23.87 mm^3
[5]; [25]
  Tumor regression CR (mice with complete regression): 6
  Tumor regression PR (mice with partial regression): 2
[5]; [11]
  T/C (%): 0.92%
  TGI (%): 182.81%
  Tumor volume (mm^3) (x ± SEM): 14.36 ± 3.63 mm^3
[6]; [31]
  Tumor regression CR (mice with complete regression): 5
  Tumor regression PR (mice with partial regression): 2
[6]; [32]
  TGI (%): 125.73%
  Tumor volume (mm^3) (x ± SEM): 17.75 ± 3.97 mm^3
[6]; [33]
  Tumor regression CR (mice with complete regression): 0
  Tumor regression PR (mice with partial regression): 6
[6]; [34]
  TGI (%): 121.68%
  Tumor volume (mm^3) (x ± SEM): 62.76 ± 9.98 mm^3

B2: 2C6.9-TL001 (DAR: 3.79): 2C6.9-TL001 from conjugation feed ratio 5:1, toxin-to-antibody ratio 3.79 (conjugate)
heavy: QVQLQESGPGLVKPSETLSLTCTVSGFSLTRYGVSWIRQPPGKGLEWIGVIWGEGNTNYNPSLKSRVTISKDSSKSQVSLKLSSVTAADTAVYYCARVNFGNALDYWGQGTLVTVSS[human IgG1 constant region not spelt out]
light: DIVMTQSPDSLAVSLGERATINCKSSQSLLNSGNQKNYLTWYQQKPGQPPKLLIYWASTRDSGVPDRFSGSGSGTDFTLTISSLQAEDVAVYYCQNDFIFPLTFGGGTKVEIKRTVAAPSVFIFPPSDEQLKSGTASVVCLLNNFYPREAKVQWKVDNALQSGNSQESVTEQDSKDSTYSLSSTLTLSKADYEKHKVYACEVTHQGLSSPVTKSFNRGEC
[7]; [35]
  TGI (%): 43.76%
  Tumor volume (mm^3) (x ± SEM): 736.12 ± 92.59 mm^3
[7]; [36]
  TGI (%): 66.94%
  Tumor volume (mm^3) (x ± SEM): 477.42 ± 67.90 mm^3
